Experimental data taken from PubChem BioAssay AID504339 (National Center for Advancing Translational Sciences (NCATS), 2011).
Hit rate of the full screen: of about 390,000 compounds, about 17,000 (4.4%) were called active. The inconclusive results got no clear call from the source; some entries with a clear call stand among them for comparison. Calls follow the shape of the dose curve; as a rule, active = well fitted inhibition curve with a large enough effect; inconclusive = small, poorly fitted or top-dose-only effect; inactive = no such curve, though single readings can be large or run the other way. Where the call is inconclusive, the potency comes from a doubtful curve fit.

Each compound was assayed against Lysine-specific demethylase 4A (Homo sapiens) (UniProt O75164) (assay: qHTS Assay for Inhibitors of JMJD2A-Tudor Domain). Settings: AlphaScreen JMJD2A-Tudor / H3K4me3 peptide binding; activity change, negative = inhibition: at 114 µM (top of the series).
UniProt O75164, sequence (O75164 whole entry, looked up, the tested form may be a part): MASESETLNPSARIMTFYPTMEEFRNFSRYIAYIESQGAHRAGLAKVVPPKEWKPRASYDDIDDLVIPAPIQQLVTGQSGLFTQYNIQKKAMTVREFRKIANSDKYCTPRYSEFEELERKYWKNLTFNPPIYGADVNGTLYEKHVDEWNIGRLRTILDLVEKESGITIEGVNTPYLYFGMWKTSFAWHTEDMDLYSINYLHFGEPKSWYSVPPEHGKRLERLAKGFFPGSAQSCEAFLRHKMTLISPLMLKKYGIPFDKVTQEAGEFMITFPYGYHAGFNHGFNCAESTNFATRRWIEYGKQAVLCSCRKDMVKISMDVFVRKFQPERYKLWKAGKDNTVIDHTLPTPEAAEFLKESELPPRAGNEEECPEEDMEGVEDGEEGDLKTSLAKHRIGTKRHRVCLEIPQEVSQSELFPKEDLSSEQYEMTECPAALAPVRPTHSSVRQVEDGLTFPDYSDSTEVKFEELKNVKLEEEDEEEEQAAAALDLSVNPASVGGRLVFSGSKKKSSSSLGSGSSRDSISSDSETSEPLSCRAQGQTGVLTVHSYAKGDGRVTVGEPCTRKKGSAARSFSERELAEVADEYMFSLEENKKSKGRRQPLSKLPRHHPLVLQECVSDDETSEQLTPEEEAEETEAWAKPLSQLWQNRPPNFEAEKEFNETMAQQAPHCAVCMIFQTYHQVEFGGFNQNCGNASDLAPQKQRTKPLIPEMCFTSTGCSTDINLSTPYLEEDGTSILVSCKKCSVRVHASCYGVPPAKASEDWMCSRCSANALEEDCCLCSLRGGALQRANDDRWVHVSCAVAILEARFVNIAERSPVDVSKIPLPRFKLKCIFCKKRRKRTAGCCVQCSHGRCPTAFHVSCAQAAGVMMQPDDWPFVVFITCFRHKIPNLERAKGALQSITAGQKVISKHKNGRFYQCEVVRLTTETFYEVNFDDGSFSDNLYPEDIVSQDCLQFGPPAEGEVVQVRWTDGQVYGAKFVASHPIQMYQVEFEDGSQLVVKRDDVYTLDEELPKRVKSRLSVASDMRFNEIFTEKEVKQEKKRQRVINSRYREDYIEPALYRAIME
% is scaled to controls: 0 for no effect and ±100 for the full control effect; potency is read from the fitted curve at half-maximal effect; tags tell the direction and shape of the fitted curve.
Also: nearly all actives have a fitted effect of over 50% in size.

SMILES | Potency | activity change, negative = inhibition
COc1ccc(C2(C(=O)c3ccccc3)C(=O)c3ccccc3C2=O)cc1 | active: 35.5 µM | –
CC(=O)c1ccc(NC(=O)C(C)OC(=O)/C=C/c2ccco2)cc1 (stereo not drawn) | inconclusive: 63.1 µM [inhibitor, partial curve] | –
Oc1ccc(C=Nc2cccc3ncccc23)c(O)c1 | inconclusive: 63.1 µM [inhibitor, partial curve] | –
CCNc1nc(NC(C)C)nc(Oc2ccc(/C=N/O)cc2)n1 | inconclusive: 70.8 µM [inhibitor, partial curve, poor fit] | –
Cc1ccc(C(=O)CC(C(=O)O)c2cn(CCC#N)c3ccccc23)cc1 (stereo not drawn) | active: 50.1 µM | –
COCCCN1C(=O)C(=O)/C(=C(/O)c2ccc(S(=O)(=O)N3CCCCC3)cc2)C1c1ccc(O)c(OC)c1 (stereo not drawn) | – | inactive: -22.8%
ON1C2CCCCC2N(O)C1c1c(F)c(F)c(F)c(F)c1F (stereo not drawn) | inconclusive: 89.1 µM [inhibitor, single point] | –
CCOC(=O)CN(C(=O)CSc1nnc(-c2ccncc2)n1CCCN(C)C)c1ccccc1 | inconclusive: 39.8 µM [inhibitor, single point] | –
O=C(O)CNS(=O)(=O)c1ccc2c3c(cccc13)C(=O)N2 | active: 28.2 µM | –
COc1ccc(N2CCN(CC(=O)c3ccc(O)cc3O)CC2)cc1 | inconclusive: 15.8 µM [inhibitor, full curve, poor fit] | –
c1c[nH]c(CNc2ncnc3ccc(-c4ccc5c(c4)OCO5)cc23)n1 | inconclusive: 63.1 µM [inhibitor, partial curve, poor fit] | –
CCN1C(=O)c2cccc3c(S(=O)(=O)Nc4ccccc4O)ccc1c23 | inconclusive: 35.5 µM [inhibitor, partial curve] | –
O=C(CC1Sc2ncnn2C1=O)Nc1ccc(Cl)cc1 (stereo not drawn) | inconclusive: 3.55 µM [inhibitor, single point] | –
Cc1[nH]c2ccccc2c1C(c1ccccc1)c1cccs1 (stereo not drawn) | – | inactive: -2.63%
CCOC(=O)c1ccc(NC(=O)c2cccc3c2C(=O)N(CC2CCCO2)C3)cc1 (stereo not drawn) | inconclusive: 79.4 µM [inhibitor, single point] | –
CC(=O)N/C(=C\c1ccccc1)C(=O)OC/C=C/c1ccccc1 | – | inactive: -4.55%
CC1(c2ccccc2)NC(=O)N(CC(=O)Nc2nc(-c3ccccn3)cs2)C1=O (stereo not drawn) | active: 44.7 µM | –
Cc1ccc(Nc2ccc([N+](=O)[O-])nc2[N+](=O)[O-])cc1 | inconclusive: 63.1 µM [inhibitor, partial curve, poor fit] | –
Cc1nc(N2CCN(Cc3ccc4c(c3)OCO4)CC2)nc2c1C(=O)CC(c1ccco1)C2 (stereo not drawn) | inconclusive: 10 µM [inhibitor, full curve, poor fit] | –
CCOC(=O)COn1c(=O)c(-c2ccc(OC)cc2)[n+]([O-])c2ccccc21 | – | inactive: -9.85%
CCOc1ccc(NCc2cc3cc(OC)ccc3[nH]c2=O)cc1 | inconclusive: 39.8 µM [inhibitor, partial curve] | –
COC(=O)c1cc(NC(=O)c2cc(-c3ccccc3Cl)oc2C(F)(F)F)ccc1N1CCOCC1 | inconclusive: 56.2 µM [inhibitor, partial curve] | –
Cc1ccc(N(C)S(=O)(=O)c2ccc3[nH]c4c(c3c2)CCCC4)cc1 | inconclusive: 22.4 µM [inhibitor, full curve] | –

SMILES | Potency | activity change, negative = inhibition
CN1CCN(CC(=O)c2ccccc2F)CC1 | active: 6.31 µM | –
Cc1cccc(OCCCN2CCOCC2)c1C | active: 25.1 µM | –
Cn1nnnc1SCCNCc1ccc(OCc2ccccc2Cl)cc1 | – | inactive: -22.8%
COc1ccc2c(C(=O)c3ccc(C)cc3)n(Cc3ccc(C(N)=O)cc3)[n+]([O-])c2c1 | inconclusive: 50.1 µM [inhibitor, partial curve, poor fit] | –
NC(=O)C1CC(=O)N(c2ccc(OCc3ccc(Cl)cc3)cc2)C1 (stereo not drawn) | inconclusive: 17.8 µM [inhibitor, partial curve, poor fit] | –
COc1ccccc1NC(=O)c1ccc(NC(=O)COC(=O)CCC2CCCC2)cc1 | – | inactive: -19.9%
Cc1cc(C)n(-c2ccc(NC(=O)C3CCCCN3Cc3cccc4c3OCO4)cc2)n1 (stereo not drawn) | – | inactive: -24.8%
CC(C)(C)OC(=O)N1CCC(c2c(C(=O)NC3CCCCC3)cnn2-c2cccc(F)c2)CC1 | – | inactive: -14.9%
CC(C)(C)c1cc(C(=O)N/N=C/c2ccc(-c3ccccc3[N+](=O)[O-])o2)n[nH]1 | inconclusive: 50.1 µM [inhibitor, partial curve] | –
O=S(=O)(Nc1nc2ccccc2nc1Cl)c1ccc(F)cc1 | – | inactive: -6.32%
Brc1ccc(OCc2ccccc2)c(CNCc2ccncc2)c1 | inconclusive: 20 µM [inhibitor, full curve] | –
COc1ccc(Nc2cc(C(=O)N3CCc4ccccc4C3)c3ccccc3n2)c(OC)c1 | inconclusive: 31.6 µM [inhibitor, partial curve] | –
Cc1ccc(S(=O)(=O)NCCC(=O)Nc2ccc3c(c2)OCO3)cc1 | inconclusive: 63.1 µM [inhibitor, partial curve, poor fit] | –
COc1ccc(/C=N/NC(=O)CCn2cnc(-c3ccccc3)c2-c2ccccc2)cc1OC | inconclusive: 44.7 µM [inhibitor, partial curve] | –
N#Cc1ccc(NC(=O)Cn2c3[n+](c4ccc(C(F)(F)F)cc42)CCCCC3)cc1 | active: 14.1 µM | –
Cc1ccc(C(=O)Nc2nnc(C3=COCCO3)o2)cc1C | inconclusive: 22.4 µM [inhibitor, full curve, poor fit] | –
O=C(/C=C/c1ccc([N+](=O)[O-])cc1)NCCc1ccccc1 | inconclusive: 14.1 µM [inhibitor, partial curve, poor fit] | –
COc1ccc(OC)c(C(C[N+](=O)[O-])c2c(C)cc3ccccn23)c1 (stereo not drawn) | inconclusive: 20 µM [inhibitor, full curve] | –
COc1ccc2[nH]c(C)c(CCNC(=S)Nc3cccc(C)c3)c2c1 | inconclusive: 56.2 µM [inhibitor, partial curve] | –
O=C(NNc1c(Cl)cccc1Cl)c1sc2ccccc2c1Cl | inconclusive: 35.5 µM [inhibitor, single point] | –
O=C(O)C1(O)C[C@@H](O)C(O)[C@H](O)C1 (stereo partly drawn) | inconclusive: 100 µM [inhibitor, single point] | –
CN1/C(=C\P(=O)(N(C)C)N(C)C)C(C)(C)c2ccccc21 | inconclusive: 100 µM [inhibitor, partial curve] | –
CCCCNc1c([N+](=O)[O-])cc(C)cc1[N+](=O)[O-] | active: 17.8 µM | –

SMILES | Potency | activity change, negative = inhibition
N#Cc1cccc(NC(=O)Cn2nc(Cc3ccncc3)c3ccccc3c2=O)c1 | – | inactive: -2.32%
CCN1C(=O)C(Cc2nc3ccccc3c(=O)n2-c2ccc(OC)cc2)c2cc(C)ccc21 (stereo not drawn) | inconclusive: 44.7 µM [inhibitor, partial curve] | –
Cc1cc(C(=O)CN2C(=O)NC3(CCCC3)C2=O)c(C)n1-c1ccc2c(c1)OCO2 | inconclusive: 56.2 µM [inhibitor, partial curve] | –
Cc1cc(C)nc(N(C#N)S(=O)(=O)c2ccccc2Cl)n1 | inconclusive: 100 µM [inhibitor, single point] | –
CCN(CCNC(=O)CS(=O)(=O)Cc1nc(-c2cccc(OC)c2)oc1C)c1ccccc1 | inconclusive: 25.1 µM [inhibitor, full curve] | –
COc1ccccc1-c1nc(C#N)c(N2CCC(Cc3ccccc3)CC2)o1 | inconclusive: 39.8 µM [inhibitor, partial curve] | –
NC(=O)C(CC(=O)O)NC(=O)[C@@H]1CCCNc2c(I)cc([N+](=O)[O-])cc2C(=O)N[C@@H](CO)C(=O)N[C@@H](Cc2ccc(O)cc2)C(=O)N1 (stereo partly drawn) | inconclusive: 79.4 µM [inhibitor, partial curve] | –
CC(=O)c1c(CC(=O)O)[nH]n(-c2nc3ccccc3s2)c1=O | active: 79.4 µM | –
O=C(Nc1ccc(N2CCCC2)cc1)c1cc2ccccc2o1 | inconclusive: 31.6 µM [inhibitor, partial curve] | –
CN(C)c1ccc(C(c2ccc(N(C)C)cc2)c2ccc([N+](=O)[O-])cc2)cc1 | active: 10 µM | –
S=C(NCc1ccco1)N1CCN(c2ccccc2Cl)CC1 | – | inactive: -28.1%
COc1ccccc1OCCn1c(=S)[nH]c2ccccc21 | inconclusive: 89.1 µM [inhibitor, partial curve] | –
COc1cccc(CNc2ccc(F)c(Cl)c2)c1O | inconclusive: 63.1 µM [inhibitor, partial curve] | –
O=C(O)c1ccc(N=C2NC(=O)C(CO)(CO)S2)cc1 | – | inactive: 0.984%
CCN(C(=O)c1cc2cc3ccc(C)cc3nc2o1)c1ccc(OC)cc1 | inconclusive: 79.4 µM [inhibitor, single point] | –
CCOc1ccc(N(CC(=O)NC2CCCCC2)S(=O)(=O)c2c(C)noc2C)cc1 | inconclusive: 25.1 µM [inhibitor, full curve] | –
O=S(=O)(CCC1CCCCN1)c1ccccc1 (stereo not drawn) | – | inactive: 1.4%
CCC(Sc1nc2ccccc2c2nc(CCn3cncc3C)nn12)C(=O)Nc1cccc(OC)c1 (stereo not drawn) | inconclusive: 44.7 µM [inhibitor, partial curve] | –
Cc1c(-c2ccccc2)cn2c1-c1ccc(C)n1CC2 | inconclusive: 79.4 µM [inhibitor, single point] | –
CCC(C(=O)Nc1ccc(C(=O)O)cc1NC(=O)C(CC)c1ccccc1)c1ccccc1 (stereo not drawn) | – | inactive: -13.3%
CC1(C)CC(=O)C2=C(C1)NC1=C(C(=O)c3ccccc31)C2c1ccccc1 (stereo not drawn) | active: 39.8 µM | –
O=C(NN1C(=O)/C(=C/c2cccs2)SC1=S)c1ccccc1 | – | inactive: -5.56%
